# Laboratory results reported in the supplement of paper PMC8728848.
# The list shows a part of the results.
# Tests used:
# Experiment in all cases: glycan array binding signal (z-score within array); higher = stronger binding
# Settings in all cases: glycan notation: IUPAC condensed, linker removed
# [1] = target: Fuc(a1-2)Gal(b1-4)[Fuc(a1-3)]GlcNAc(b1-3)GalNAc
# In short: (§1)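 Arrays were curated from the Consortium for Functional Glycomics database, 3228 in total, and kept only where the protein sequence was available. Binding is expressed as a within-array Z-score. This score was averaged across arrays of the same protein sequence at different concentrations or buffers and across linkers, and negative values can be read as non-binding.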
# [2] = target: Fuc(a1-2)Gal(b1-4)[Fuc(a1-3)]GlcNAc(b1-3)[Neu5Ac(a2-6)Gal(b1-4)GlcNAc(b1-6)]Gal(b1-4)Glc
# In short: as §1
# [3] = target: Fuc(a1-2)Gal3S(b1-4)GlcNAc
# In short: as §1
# [4] = target: Fuc(a1-2)Gal6S(b1-3)GlcNAc
# In short: as §1
# [5] = target: Fuc(a1-2)Gal6S(b1-3)GlcNAc6S
# In short: as §1
# [6] = target: Fuc(a1-2)Gal6S(b1-4)Glc
# In short: as §1
# [7] = target: Fuc(a1-2)Gal6S(b1-4)Glc6S
# In short: as §1
# [8] = target: Fuc(a1-2)Gal6S(b1-4)GlcNAc
# In short: as §1
# [9] = target: Fuc(a1-2)GlcNAc
# In short: as §1
# [10] = target: Fuc(a1-2)[Gal(a1-3)]Gal
# In short: as §1
# [11] = target: Fuc(a1-2)[Gal(a1-3)]Gal(b1-3)GalNAc
# In short: as §1
# [12] = target: Fuc(a1-2)[Gal(a1-3)]Gal(b1-3)GalNAc(b1-3)Gal(a1-4)Gal(b1-4)Glc
# In short: as §1
# [13] = target: Fuc(a1-2)[Gal(a1-3)]Gal(b1-3)GlcNAc
# In short: as §1
# [14] = target: Fuc(a1-2)[Gal(a1-3)]Gal(b1-3)GlcNAc(b1-2)Man(a1-3)[Fuc(a1-2)[Gal(a1-3)]Gal(b1-3)GlcNAc(b1-2)Man(a1-6)]Man(b1-4)GlcNAc(b1-4)GlcNAc
# In short: as §1
# [15] = target: Fuc(a1-2)[Gal(a1-3)]Gal(b1-3)GlcNAc(b1-2)Man(a1-3)[Fuc(a1-2)[Gal(a1-3)]Gal(b1-3)GlcNAc(b1-2)Man(a1-6)]Man(b1-4)GlcNAc(b1-4)[Fuc(a1-6)]GlcNAc
# In short: as §1
# [16] = target: Fuc(a1-2)[Gal(a1-3)]Gal(b1-3)GlcNAc(b1-3)GalNAc
# In short: as §1
# [17] = target: Fuc(a1-2)[Gal(a1-3)]Gal(b1-3)GlcNAc(b1-6)GalNAc
# In short: as §1
# [18] = target: Fuc(a1-2)[Gal(a1-3)]Gal(b1-4)Glc
# In short: as §1
# [19] = target: Fuc(a1-2)[Gal(a1-3)]Gal(b1-4)GlcNAc
# In short: as §1
# [20] = target: Fuc(a1-2)[Gal(a1-3)]Gal(b1-4)GlcNAc(b1-2)Man
# In short: as §1
# [21] = target: Fuc(a1-2)[Gal(a1-3)]Gal(b1-4)GlcNAc(b1-2)Man(a1-3)[Fuc(a1-2)[Gal(a1-3)]Gal(b1-4)GlcNAc(b1-2)Man(a1-6)]Man(b1-4)GlcNAc(b1-4)GlcNAc
# In short: as §1
# [22] = target: Fuc(a1-2)[Gal(a1-3)]Gal(b1-4)GlcNAc(b1-2)Man(a1-3)[Fuc(a1-2)[Gal(a1-3)]Gal(b1-4)GlcNAc(b1-2)Man(a1-6)]Man(b1-4)GlcNAc(b1-4)[Fuc(a1-6)]GlcNAc
# In short: as §1
# [23] = target: Fuc(a1-2)[Gal(a1-3)]Gal(b1-4)GlcNAc(b1-3)GalNAc
# In short: as §1
# [24] = target: Fuc(a1-2)[Gal(a1-3)]Gal(b1-4)GlcNAc(b1-6)GalNAc
# In short: as §1
# [25] = target: Fuc(a1-2)[Gal(a1-3)]Gal(b1-4)[Fuc(a1-3)]Glc
# In short: as §1
# [26] = target: Fuc(a1-2)[Gal(a1-3)]Gal(b1-4)[Fuc(a1-3)]GlcNAc
# In short: as §1
# [27] = target: Fuc(a1-2)[Gal(a1-3)]Gal(b1-4)[Fuc(a1-3)]GlcNAc(b1-3)GalNAc
# In short: as §1
# [28] = target: Fuc(a1-2)[Gal(a1-4)]Gal(b1-4)GalNAc
# In short: as §1
# [29] = target: Fuc(a1-2)[Gal(a1-4)]Gal(b1-4)GlcNAc
# In short: as §1
# [30] = target: Fuc(a1-2)[GalNAc(a1-3)]Gal
# In short: as §1
# [31] = target: Fuc(a1-2)[GalNAc(a1-3)]Gal(b1-3)GalNAc(a1-3)[Fuc(a1-2)]Gal(b1-4)GlcNAc
# In short: as §1
# [32] = target: Fuc(a1-2)[GalNAc(a1-3)]Gal(b1-3)GalNAc(b1-3)Gal(a1-4)Gal(b1-4)Glc
# In short: as §1
# [33] = target: Fuc(a1-2)[GalNAc(a1-3)]Gal(b1-3)GlcNAc
# In short: as §1
# [34] = target: Fuc(a1-2)[GalNAc(a1-3)]Gal(b1-3)GlcNAc(b1-2)Man(a1-3)[Fuc(a1-2)[GalNAc(a1-3)]Gal(b1-3)GlcNAc(b1-2)Man(a1-6)]Man(b1-4)GlcNAc(b1-4)GlcNAc
# In short: as §1
# [35] = target: Fuc(a1-2)[GalNAc(a1-3)]Gal(b1-3)GlcNAc(b1-2)Man(a1-3)[Fuc(a1-2)[GalNAc(a1-3)]Gal(b1-3)GlcNAc(b1-2)Man(a1-6)]Man(b1-4)GlcNAc(b1-4)[Fuc(a1-6)]GlcNAc
# In short: as §1
# [36] = target: Fuc(a1-2)[GalNAc(a1-3)]Gal(b1-3)GlcNAc(b1-3)GalNAc
# In short: as §1
# [37] = target: Fuc(a1-2)[GalNAc(a1-3)]Gal(b1-3)GlcNAc(b1-6)GalNAc
# In short: as §1
# [38] = target: Fuc(a1-2)[GalNAc(a1-3)]Gal(b1-4)Glc
# In short: as §1
# [39] = target: Fuc(a1-2)[GalNAc(a1-3)]Gal(b1-4)GlcNAc
# In short: as §1
# [40] = target: Fuc(a1-2)[GalNAc(a1-3)]Gal(b1-4)GlcNAc(b1-2)Man
# In short: as §1
# [41] = target: Fuc(a1-2)[GalNAc(a1-3)]Gal(b1-4)GlcNAc(b1-2)Man(a1-3)[Fuc(a1-2)[GalNAc(a1-3)]Gal(b1-4)GlcNAc(b1-2)Man(a1-6)]Man(b1-4)GlcNAc(b1-4)GlcNAc
# In short: as §1
# [42] = target: Fuc(a1-2)[GalNAc(a1-3)]Gal(b1-4)GlcNAc(b1-2)Man(a1-3)[Fuc(a1-2)[GalNAc(a1-3)]Gal(b1-4)GlcNAc(b1-2)Man(a1-6)]Man(b1-4)GlcNAc(b1-4)[Fuc(a1-6)]GlcNAc
# In short: as §1
# [43] = target: Fuc(a1-2)[GalNAc(a1-3)]Gal(b1-4)GlcNAc(b1-3)Gal(b1-4)GlcNAc
# In short: as §1
# [44] = target: Fuc(a1-2)[GalNAc(a1-3)]Gal(b1-4)GlcNAc(b1-3)Gal(b1-4)GlcNAc(b1-3)Gal(b1-4)GlcNAc
# In short: as §1
# [45] = target: Fuc(a1-2)[GalNAc(a1-3)]Gal(b1-4)GlcNAc(b1-3)GalNAc
# In short: as §1
binder,measurement,setting,value
"Gal 2 (Homo sapiens), P05162 (protein) MTGELEVKNMDMKPGSTLKITGSIADGTDGFVINLGQGTDKLNLHFNPRFSESTIVCNSLDGSNWGQEQREDHLCFSPGSEVKFTVTFESDKFKVKLPDGHELTFPNRLGHSHLSYLSVRGGFNMSSFKLKE",glycan array binding signal (z-score),[1],-0.121
same,glycan array binding signal (z-score),[2],-0.296
same,glycan array binding signal (z-score),[3],-0.17
same,glycan array binding signal (z-score),[4],0.007
same,glycan array binding signal (z-score),[5],0.066
same,glycan array binding signal (z-score),[6],-0.205
same,glycan array binding signal (z-score),[7],-0.193
same,glycan array binding signal (z-score),[8],-0.248
same,glycan array binding signal (z-score),[9],-0.39
same,glycan array binding signal (z-score),[10],-0.238
same,glycan array binding signal (z-score),[11],-0.267
same,glycan array binding signal (z-score),[12],-0.171
same,glycan array binding signal (z-score),[13],0.994
same,glycan array binding signal (z-score),[14],-0.193
same,glycan array binding signal (z-score),[15],-0.254
same,glycan array binding signal (z-score),[16],-0.275
same,glycan array binding signal (z-score),[17],-0.179
same,glycan array binding signal (z-score),[18],1.31
same,glycan array binding signal (z-score),[19],2.52
same,glycan array binding signal (z-score),[20],0.237
same,glycan array binding signal (z-score),[21],0.167
same,glycan array binding signal (z-score),[22],8.45
same,glycan array binding signal (z-score),[23],-0.029
same,glycan array binding signal (z-score),[24],-0.249
same,glycan array binding signal (z-score),[25],-0.139
same,glycan array binding signal (z-score),[26],-0.142
same,glycan array binding signal (z-score),[27],-0.233
same,glycan array binding signal (z-score),[28],-0.44
same,glycan array binding signal (z-score),[29],-0.264
same,glycan array binding signal (z-score),[30],-0.234
same,glycan array binding signal (z-score),[31],-0.233
same,glycan array binding signal (z-score),[32],-0.065
same,glycan array binding signal (z-score),[33],3.75
same,glycan array binding signal (z-score),[34],1.32
same,glycan array binding signal (z-score),[35],-0.192
same,glycan array binding signal (z-score),[36],-0.072
same,glycan array binding signal (z-score),[37],1.92
same,glycan array binding signal (z-score),[38],1.98
same,glycan array binding signal (z-score),[39],5.89
same,glycan array binding signal (z-score),[40],13.5
same,glycan array binding signal (z-score),[41],0.792
same,glycan array binding signal (z-score),[42],1.69
same,glycan array binding signal (z-score),[43],0.862
same,glycan array binding signal (z-score),[44],-0.161
same,glycan array binding signal (z-score),[45],0
